Among the data in PMC9911399, “Two distinct binding modes provide the RNA-binding protein RbFox with extraordinary sequence specificity” are binding signal values, retold here.

Positions count from the first letter of the chain named. This is one part of the list.

The chains are these.
T1: RBFOX1 RRM (Homo sapiens, UniProt Q9NWB1 109-208)
T1 sequence: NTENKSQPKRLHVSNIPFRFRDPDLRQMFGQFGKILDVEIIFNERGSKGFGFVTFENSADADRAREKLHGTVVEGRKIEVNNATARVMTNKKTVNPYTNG

B1: CAUAUCG (DNA:RNA)
RNA: GGGAGACCGGAAUUCAGAUUGUCCCAUAUCGUUAAAUCCCGUCGUAGCCACCA
DNA 1: CAATCTGAATTCCGGTCTCCC
DNA 2: TGGTGGCTACGACGGGATT
B2: GAGGGAA (DNA:RNA)
RNA: B1 RNA with C25G, U27G, A28G, U29G, C30A, G31A
DNA 1: CAATCTGAATTCCGGTCTCCC
DNA 2: TGGTGGCTACGACGGGATT
B3: UUGCGGC (DNA:RNA)
RNA: GGGAGACCGGAAUUCAGAUUGUCCUUGCGGCUUAAAUCCCGUCGUAGCCACCA
DNA 1: CAATCTGAATTCCGGTCTCCC
DNA 2: TGGTGGCTACGACGGGATT
B4: UGAGGGG (DNA:RNA)
RNA: B3 RNA with U26G, G27A, C28G, C31G
DNA 1: CAATCTGAATTCCGGTCTCCC
DNA 2: TGGTGGCTACGACGGGATT
B5: GCUCUAC (DNA:RNA)
RNA: B1 RNA with C25G, A26C, A28C, C30A, G31C
DNA 1: CAATCTGAATTCCGGTCTCCC
DNA 2: TGGTGGCTACGACGGGATT
B6: UAGUACG (DNA:RNA)
RNA: B1 RNA with C25U, U27G, A28U, U29A
DNA 1: CAATCTGAATTCCGGTCTCCC
DNA 2: TGGTGGCTACGACGGGATT
B7: GGGGCGG (DNA:RNA)
RNA: B3 RNA with U25G, U26G, C28G, G29C, C31G
DNA 1: CAATCTGAATTCCGGTCTCCC
DNA 2: TGGTGGCTACGACGGGATT
B8: UUUAGCC (DNA:RNA)
RNA: B3 RNA with G27U, C28A, G30C
DNA 1: CAATCTGAATTCCGGTCTCCC
DNA 2: TGGTGGCTACGACGGGATT
B9: CAAGUGU (DNA:RNA)
RNA: B1 RNA with U27A, A28G, C30G, G31U
DNA 1: CAATCTGAATTCCGGTCTCCC
DNA 2: TGGTGGCTACGACGGGATT
B10: GCUCGAG (DNA:RNA)
RNA: B1 RNA with C25G, A26C, A28C, U29G, C30A
DNA 1: CAATCTGAATTCCGGTCTCCC
DNA 2: TGGTGGCTACGACGGGATT
B11: UGACGAG (DNA:RNA)
RNA: B3 RNA with U26G, G27A, G30A, C31G
DNA 1: CAATCTGAATTCCGGTCTCCC
DNA 2: TGGTGGCTACGACGGGATT
B12: AGACCGC (DNA:RNA)
RNA: B3 RNA with U25A, U26G, G27A, G29C
DNA 1: CAATCTGAATTCCGGTCTCCC
DNA 2: TGGTGGCTACGACGGGATT
B13: UAUGGGG (DNA:RNA)
RNA: B1 RNA with C25U, A28G, U29G, C30G
DNA 1: CAATCTGAATTCCGGTCTCCC
DNA 2: TGGTGGCTACGACGGGATT
B14: UUGUCGA (DNA:RNA)
RNA: B3 RNA with C28U, G29C, C31A
DNA 1: CAATCTGAATTCCGGTCTCCC
DNA 2: TGGTGGCTACGACGGGATT
B15: GGCCGAA (DNA:RNA)
RNA: B3 RNA with U25G, U26G, G27C, G30A, C31A
DNA 1: CAATCTGAATTCCGGTCTCCC
DNA 2: TGGTGGCTACGACGGGATT
B16: UACCCCA (DNA:RNA)
RNA: B1 RNA with C25U, U27C, A28C, U29C, G31A
DNA 1: CAATCTGAATTCCGGTCTCCC
DNA 2: TGGTGGCTACGACGGGATT
B17: UCUGCCA (DNA:RNA)
RNA: B1 RNA with C25U, A26C, A28G, U29C, G31A
DNA 1: CAATCTGAATTCCGGTCTCCC
DNA 2: TGGTGGCTACGACGGGATT
B18: GAUGGCC (DNA:RNA)
RNA: B1 RNA with C25G, A28G, U29G, G31C
DNA 1: CAATCTGAATTCCGGTCTCCC
DNA 2: TGGTGGCTACGACGGGATT
B19: CCAGGUC (DNA:RNA)
RNA: B3 RNA with U25C, U26C, G27A, C28G, G30U
DNA 1: CAATCTGAATTCCGGTCTCCC
DNA 2: TGGTGGCTACGACGGGATT
B20: AUAUCAG (DNA:RNA)
RNA: B1 RNA with C25A, A26U, U27A, A28U, U29C, C30A
DNA 1: CAATCTGAATTCCGGTCTCCC
DNA 2: TGGTGGCTACGACGGGATT
B21: UCUGUUA (DNA:RNA)
RNA: B1 RNA with C25U, A26C, A28G, C30U, G31A
DNA 1: CAATCTGAATTCCGGTCTCCC
DNA 2: TGGTGGCTACGACGGGATT
B22: CAGUCUA (DNA:RNA)
RNA: B1 RNA with U27G, A28U, U29C, C30U, G31A
DNA 1: CAATCTGAATTCCGGTCTCCC
DNA 2: TGGTGGCTACGACGGGATT
B23: GGGCAGC (DNA:RNA)
RNA: B3 RNA with U25G, U26G, G29A
DNA 1: CAATCTGAATTCCGGTCTCCC
DNA 2: TGGTGGCTACGACGGGATT
B24: GUCGAAC (DNA:RNA)
RNA: B3 RNA with U25G, G27C, C28G, G29A, G30A
DNA 1: CAATCTGAATTCCGGTCTCCC
DNA 2: TGGTGGCTACGACGGGATT
B25: UGAGGAG (DNA:RNA)
RNA: B3 RNA with U26G, G27A, C28G, G30A, C31G
DNA 1: CAATCTGAATTCCGGTCTCCC
DNA 2: TGGTGGCTACGACGGGATT
B26: UCGGUAC (DNA:RNA)
RNA: B3 RNA with U26C, C28G, G29U, G30A
DNA 1: CAATCTGAATTCCGGTCTCCC
DNA 2: TGGTGGCTACGACGGGATT
B27: GCCCACU (DNA:RNA)
RNA: B1 RNA with C25G, A26C, U27C, A28C, U29A, G31U
DNA 1: CAATCTGAATTCCGGTCTCCC
DNA 2: TGGTGGCTACGACGGGATT
B28: CUAAUAC (DNA:RNA)
RNA: B1 RNA with A26U, U27A, C30A, G31C
DNA 1: CAATCTGAATTCCGGTCTCCC
DNA 2: TGGTGGCTACGACGGGATT
B29: GCGAGGC (DNA:RNA)
RNA: B3 RNA with U25G, U26C, C28A
DNA 1: CAATCTGAATTCCGGTCTCCC
DNA 2: TGGTGGCTACGACGGGATT
B30: ACAGUCC (DNA:RNA)
RNA: B1 RNA with C25A, A26C, U27A, A28G, G31C
DNA 1: CAATCTGAATTCCGGTCTCCC
DNA 2: TGGTGGCTACGACGGGATT
B31: UGCGGAG (DNA:RNA)
RNA: B3 RNA with U26G, G27C, C28G, G30A, C31G
DNA 1: CAATCTGAATTCCGGTCTCCC
DNA 2: TGGTGGCTACGACGGGATT

For the assay, the target named is T1, RBFOX1 RRM. As to the kind of experiment: EMSA; HiTS-Eq, 1 nM pool, 10 min; buffer printed only for the single-RNA assays: 10 mM Tris pH 7.5, 150 mM NaCl, 3.4 mM EDTA, 0.001% NP-40, 30 C. The note with it: tags: His6 N-terminal (pET28a); label: 5' 32P. The essentials: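 Purified RbFox RRM (wild type or mutant) was equilibrated for 10 min in 50 µL with 1 nM of a 5′-radiolabelled pool of RNA with 7 randomized nucleotides, its flanks annealed to DNA oligonucleotides, across increasing protein concentrations. Free RNA was separated by 8% native PAGE, excised, reverse-transcribed, PCR-barcoded and sequenced on an Illumina HiSeq 2500. Relative association constants came from read-count changes of each variant against the control reaction, normalised to the cognate motif.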
A general note: A gel shift assay detects complexes by their altered migration in electrophoresis.
As to B1, the binding signal is 0.00257 KA relative to UGCAUGU. Under B2 stands 0.0111 KA relative to UGCAUGU. Consider B3, for which the binding signal was 0.0107 KA relative to UGCAUGU.

For B4, the binding signal is 0.00637 KA relative to UGCAUGU. Regarding B5, the binding signal is 0.00577 KA relative to UGCAUGU. Under B6 stands 0.0135 KA relative to UGCAUGU; under B7, 0.028 KA relative to UGCAUGU. The figure for B8 is 0.00739 KA relative to UGCAUGU. Under B9 stands 0.0111 KA relative to UGCAUGU; under B10, 0.0268 KA relative to UGCAUGU; under B11, 0.0244 KA relative to UGCAUGU. B12: the binding signal is 0.00757 KA relative to UGCAUGU. Under B13 stands 0.00586 KA relative to UGCAUGU; under B14, 0.0246 KA relative to UGCAUGU; under B15, 0.00907 KA relative to UGCAUGU. Under B16 stands 0.000257 KA relative to UGCAUGU; under B17, 0.00928 KA relative to UGCAUGU; under B18, 0.0214 KA relative to UGCAUGU.

As for B19, the binding signal is 0.0114 KA relative to UGCAUGU.

On to B20, for which the binding signal was 0.00629 KA relative to UGCAUGU.

Consider B21, for which the binding signal was 0.0122 KA relative to UGCAUGU. The figure for B22 is 0.00506 KA relative to UGCAUGU; for B23 it is 0.0145 KA relative to UGCAUGU. The figure for B24 is 0.0123 KA relative to UGCAUGU; for B25 it is 0.0109 KA relative to UGCAUGU. Under B26 stands 0.0174 KA relative to UGCAUGU. As for B27, the binding signal is 0.00358 KA relative to UGCAUGU. Under B28 stands 0.00176 KA relative to UGCAUGU; under B29, 0.0102 KA relative to UGCAUGU. Under B30 stands 0.0017 KA relative to UGCAUGU. Take B31: the binding signal was 0.0207 KA relative to UGCAUGU.
